The supplement of paper PMC12217912
The other results are listed elsewhere or left out. The full chains were built here from the parent and the listed change. Inactive controls read about 0.05.

B1: TEV protease; numbered along this chain (parent)
chain: MGESLFKGPRDYNPISSSICHLTNESDGHTTSLYGIGFGPFIITNKHLFRRNNGTLVVQSLHGVFKVKDTTTLQQHLVDGRDMIIIRMPKDFPPFPQKLKFREPQREERICLVTTNFQTKSMSSMVSDTSCTFPSGDGIFWKHWIQTKDGQCGSPLVSTRDGFIVGIHSASNFTNTNNYFTSVPKNFMELLTNQEAQQWVSGWRLNADSVLWGGHKVFMVKPEEPFQPVKEATQL

Variants of: B1
Test: raw area under fraction-flipped curve 0-4 h after induction (AUC4h, not background-subtracted), DNA-recorder readout of cleavage of the substrate (dimensionless); higher = more cleavage of the substrate by the protease variant
Conditions: temperature: 34 °C; time window: 0-4 h after rhamnose induction
Experimental: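 In vivo DNA recorder in E. coli TOP10(DE3) ΔrhaA at 34 °C. Each TEVp single-site mutant (parent TEVp 0) is paired with a single-site variant of the 7-mer TEVs (canonical ENLYFQ|S). The substrate sits between flexible linkers in a Bxb1-sfGFP-TEVs-SsrA fusion, so cleavage stabilises Bxb1 and speeds flipping of a recombination array, read by NGS. The value is the raw area under the fraction-flipped curve over 0-4 h after rhamnose induction (AUC4h), with ≥20 reads per time point. It is not background-subtracted; inactive controls average about 0.047.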
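Also: Bxb1 expression induced with 0.2% (w/v) L-rhamnose at OD600 near 0.5, cultures sampled hourly, flipped fraction per protease–substrate barcode pair counted by paired-end Illumina sequencing.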

| Variant | area with substrate ENLAFQS | area with substrate ENLDFQS | area with substrate ENLKFQS | area with substrate ENLLFQS | area with substrate ENLMFQS | area with substrate ENLNFQS | area with substrate ENLQFQS | area with substrate ENLRFQS | area with substrate ENLSFQS | area with substrate ENLTFQS | area with substrate ENLVFQS | area with substrate ENLIFQS | area with substrate ENLPFQS | area with substrate ENLEFQS | area with substrate ENLFFQS | area with substrate ENLGFQS | area with substrate ENLHFQS | area with substrate ENLWFQS | area with substrate ENLCFQS |
| --- | --- | --- | --- | --- | --- | --- | --- | --- | --- | --- | --- | --- | --- | --- | --- | --- | --- | --- | --- |
| F133R | 0.0641 | 0.0657 | 0.0877 | 0.0711 | 0.0804 | 0.0845 | 0.0986 | 0.127 | 0.0692 | 0.0853 | 0.0868 |  |  |  |  |  |  |  |  |
| P134N | 0.0619 | 0.0506 | 0.0636 | 0.0623 | 0.0589 | 0.0543 |  | 0.0649 | 0.0647 |  | 0.0586 | 0.073 | 0.0564 |  |  |  |  |  |  |
| P134V | 0.0619 | 0.062 | 0.0479 | 0.0921 | 0.0913 | 0.0646 | 0.0731 | 0.061 | 0.0863 |  | 0.0624 | 0.0616 | 0.0626 | 0.0647 | 0.0792 | 0.0667 | 0.0663 | 0.0603 |  |
| S135C | 0.0609 | 0.0566 | 0.0659 | 0.0541 |  | 0.0619 | 0.0556 | 0.0635 | 0.0747 |  | 0.0564 | 0.068 | 0.0699 |  | 0.0694 |  | 0.0597 | 0.0545 | 0.049 |
| S135W | 0.0575 | 0.0622 | 0.0712 | 0.0567 |  | 0.0604 | 0.0546 | 0.0407 | 0.0602 | 0.0645 | 0.0601 | 0.0621 |  | 0.0496 | 0.0583 |  | 0.0453 | 0.0566 |  |
| D137I | 0.077 | 0.0661 | 0.0686 |  |  | 0.0666 |  | 0.0767 | 0.0552 |  | 0.0695 |  | 0.0638 |  | 0.0812 |  | 0.0595 |  | 0.0912 |
| G138K | 0.0623 | 0.0688 | 0.0727 | 0.0694 |  | 0.0587 | 0.0767 | 0.0599 | 0.0628 |  |  |  | 0.0698 |  | 0.0531 |  |  | 0.0613 |  |
| I139R | 0.0599 | 0.0584 | 0.068 | 0.0601 | 0.0431 | 0.0645 | 0.0891 | 0.0748 | 0.0613 |  | 0.0602 |  | 0.0592 | 0.0638 | 0.0593 | 0.0325 | 0.085 | 0.0552 |  |
| F140Y | 0.0536 |  | 0.0766 |  |  | 0.0455 |  |  | 0.0665 |  |  | 0.0601 | 0.0658 | 0.0678 | 0.0669 |  |  |  |  |
| W141E | 0.0321 | 0.0608 | 0.0458 |  |  |  |  | 0.0475 |  |  |  |  | 0.043 |  |  | 0.0586 | 0.0675 |  | 0.0657 |
| H143F | 0.064 | 0.0729 |  |  |  | 0.0589 |  |  |  |  |  |  | 0.0639 | 0.0683 | 0.106 |  |  |  | 0.0608 |
| I145M | 0.0729 | 0.0533 |  | 0.0688 |  | 0.0499 | 0.0583 | 0.0787 | 0.0596 |  |  | 0.0722 | 0.0533 | 0.0696 | 0.0761 |  | 0.06 |  | 0.0781 |
| Q146A | 0.0521 | 0.0516 | 0.0734 | 0.0758 | 0.0949 | 0.0653 | 0.063 | 0.12 |  | 0.0697 | 0.0928 | 0.089 | 0.0414 | 0.0618 | 0.114 |  | 0.07 |  |  |
| Q146F | 0.0678 | 0.0808 |  | 0.0863 |  | 0.0601 |  |  |  |  |  | 0.071 | 0.0692 | 0.0614 | 0.0789 |  |  | 0.0678 |  |
| Q146W | 0.0599 | 0.0525 |  |  |  | 0.0523 | 0.0699 |  | 0.0675 | 0.0484 |  | 0.102 |  |  | 0.102 |  | 0.0647 | 0.0708 |  |
| T147A | 0.0545 | 0.061 | 0.0648 | 0.0602 | 0.0772 | 0.0625 | 0.0705 | 0.0583 | 0.0463 |  |  | 0.0601 |  | 0.0592 | 0.0712 |  |  |  | 0.0457 |
| T147H | 0.0783 | 0.0644 | 0.0592 |  |  | 0.0638 |  | 0.0564 | 0.0656 |  | 0.0566 | 0.0618 | 0.059 | 0.0681 | 0.0658 |  | 0.059 | 0.0521 | 0.0413 |
| K148H | 0.0491 | 0.0598 | 0.0624 |  |  | 0.0694 |  |  | 0.0672 | 0.0346 |  |  | 0.0689 | 0.0617 | 0.0747 |  | 0.0547 |  |  |
| K148V | 0.0553 | 0.0672 | 0.0695 | 0.0796 |  | 0.065 |  |  | 0.0758 |  |  | 0.0896 |  | 0.0673 | 0.0962 |  | 0.0665 |  | 0.0771 |
| D149L | 0.0549 | 0.0545 | 0.0713 |  | 0.0896 | 0.0644 |  |  | 0.051 | 0.075 | 0.0727 | 0.0552 | 0.0605 |  | 0.035 |  | 0.0427 | 0.0609 |  |
| C152N | 0.0609 | 0.0689 | 0.0524 |  |  | 0.07 |  | 0.0553 | 0.0613 |  | 0.0482 | 0.0569 | 0.0304 |  | 0.0642 |  |  |  |  |
| G153K | 0.0508 | 0.0303 |  | 0.053 | 0.0421 |  |  |  |  |  |  |  |  |  | 0.06 |  | 0.0529 | 0.0931 | 0.0626 |
| S154K | 0.0625 | 0.0922 | 0.0745 | 0.077 | 0.0402 | 0.058 |  | 0.0672 | 0.0538 |  |  |  | 0.0571 |  | 0.0673 |  | 0.0666 |  | 0.0787 |
| S154T | 0.0558 |  | 0.0781 | 0.084 |  | 0.0547 |  | 0.0798 |  |  |  |  |  |  |  |  | 0.0791 | 0.0795 |  |
| L156T | 0.0687 | 0.0374 | 0.0713 | 0.0559 | 0.0763 | 0.0614 | 0.0713 |  | 0.0734 | 0.0667 | 0.0638 | 0.0776 | 0.0596 | 0.0439 | 0.0738 |  |  | 0.0656 | 0.0638 |
| V157Q | 0.0701 |  | 0.0668 | 0.0632 |  | 0.061 | 0.0658 | 0.0536 | 0.0615 |  | 0.068 | 0.0829 | 0.0498 | 0.0585 | 0.0771 |  |  | 0.0667 |  |
| S158F | 0.0377 | 0.0518 | 0.0646 |  |  | 0.0622 |  | 0.0587 |  |  |  | 0.0672 | 0.0415 | 0.0505 | 0.055 |  | 0.0533 | 0.0524 |  |
| S158P | 0.0326 | 0.0552 | 0.0589 |  |  | 0.0519 |  |  | 0.0555 |  | 0.0423 | 0.0531 |  | 0.0436 | 0.0673 | 0.0514 |  | 0.0415 | 0.0659 |
| T159D | 0.0615 | 0.0603 |  |  |  |  |  |  |  |  |  |  | 0.0595 |  | 0.0629 |  |  |  |  |
| T159N | 0.0614 | 0.107 | 0.0764 |  |  |  |  | 0.0599 | 0.0769 |  |  |  |  | 0.0603 |  |  |  |  |  |
